# Test results as given in PubChem BioAssay AID1508624 (National Center for Advancing Translational Sciences (NCATS), 2021).
# The campaign covered roughly 48,000 compounds. About 120 (0.25%) were called active. Not shown: some 4% with an inconclusive outcome. Calls come from the whole dose curve; as a rule, active = well fitted activation curve with a large enough effect; inconclusive = small, poorly fitted or top-dose-only effect, or another doubt; inactive = no such curve, though single readings can be large or run the other way. Some of the results follow.
# Experiment: Primary qHTS for Identification of Small Molecule Activators of Huntingtin-Antisense Promoter Activity; note: nearly all actives have a fitted effect of over 55% in size
# Conditions: HEK293 HTT-AS promoter firefly luciferase reporter, 24 h; series mostly up to 57.5 µM; activity change, positive = activation: at the top concentration
# Summary of the method: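 Firefly luciferase signal from promoter-reporter HEK293 cells was scaled between vehicle (0%) and zero RLU (-100%). Compounds were tested at final concentrations of up to 57.5 uM over 24 h at 37 degrees C. PTC124 at 50 uM final served as control inhibitor.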
row,SMILES,"activity change, positive = activation"
1,Cc1cc(-n2c(C)nc3ccccc3c2=O)ccc1NC(=O)c1cccc([N+](=O)[O-])c1C,inactive: -8.99%
2,Cc1cccc(OCC(=O)Nc2ccc(S(=O)(=O)N(Cc3ccccc3)c3ccccc3)cc2)c1,inactive: -13%
3,COC(=O)c1ccccc1NC(=O)C1CCCN(C(=O)c2cnn(-c3ccc(F)cc3)c2-n2cccc2)C1 (stereo unspecified),inactive: -7.68%
4,COCCn1c(=O)[nH]c2cc(C(=O)N3CCN(c4ccc(F)cc4)CC3)ccc2c1=O,inactive: -22.9%
5,Cc1cc(Br)cc(C)c1OCC(=O)Nc1ccc(S(=O)(=O)Nc2ncccn2)cc1,inactive: -13.9%
6,CCOC(=O)c1cccc(NC(=O)Cn2cnc3nc4c(cc3c2=O)CCCC4)c1,inactive: 0.522%
7,CCN(CC)CCCNC(=O)c1ccc2c(c1)NC(=O)C(CS(=O)(=O)Cc1ccc(F)cc1Cl)N2 (stereo unspecified),inactive: -4.45%
8,COCCNC(=O)c1sc2nc3n(c(=O)c2c1C)CCC3,inactive: -6.26%
9,COc1ccc(N2CC(c3nc(-c4ccccc4C)no3)CC2=O)cc1Cl (stereo unspecified),inactive: -9.98%
10,CCc1ccc(NS(=O)(=O)c2ccc3[nH]cc(C(=O)NCCc4ccccc4)c(=O)c3c2)cc1,inactive: 14.1%
11,CCNC(=O)NCCCOc1cccc(CN2CCCCC2)c1,inactive: -29.6%
12,Cc1cccc(CNC(=O)C2CCN(S(=O)(=O)c3cccc4nonc34)CC2)c1,inactive: -6.94%
13,CCCC(=O)OCc1cnc(C)c2oc(=O)c(C(=O)Nc3ccc(F)cc3C)cc12,inactive: -12.7%
14,C[C@@]1(C(=O)Nc2ccc(F)nc2)CCCN1c1nc(Nc2cc(C3CC3)[nH]n2)c2cccn2n1,inactive: -45.8%
15,COc1ccc(-c2noc(CNC(=O)c3ccc(OC)cc3OC)n2)cc1,inactive: -15.7%
16,CCC1=Nc2cc(C(=O)N3CCC(C)CC3)ccc2Sc2ccc(C)cc21,inactive: -13.7%
17,CCOc1ccc(CCNC(=O)C2CC(=O)N(CCc3ccc(OC)c(OC)c3)C2)cc1OCC (stereo unspecified),inactive: -1.81%
18,CCOC(=O)c1c(NC(=O)COc2ccc(OC)cc2)sc(C(=O)N(CC)CC)c1C,inactive: -58.1%
19,CCCCN(CC)CCNC(=O)c1nn(-c2ccc(OC)cc2)c(=O)c2c1c1ccccc1n2C,inactive: 0.112%
20,N#C/C(=C\c1ccccc1)c1nc(-c2cc3c(ccc4ccccc43)oc2=O)cs1,inactive: -6.04%
21,COC(=O)/C=C(/C)N,inactive: -0.792%
22,CCN(CC)c1ccc(NC(=O)C2CCCN(S(=O)(=O)c3ccc4c(c3)oc(=O)n4C)C2)c(C)c1 (stereo unspecified),inactive: -35.8%
23,CCC(Sc1nc2n[nH]c(C)c2c(=N)n1-c1ccc(Br)cc1)C(=O)N(CC)CC (stereo unspecified),inactive: -48.7%
24,COc1ccccc1CSc1nc2n(n1)C(c1ccccc1)C(C(=O)Nc1ccc(C)cc1)=C(C)N2 (stereo unspecified),inactive: -26.4%

row,SMILES,"activity change, positive = activation"
1,Cc1ccc(NC(=O)C2CCCN(S(=O)(=O)c3ccc(C)cc3)C2)cc1 (stereo unspecified),inactive: -12.2%
2,CCOC(=O)c1c(S(=O)(=O)N2CCN(c3cc(Cl)ccc3C)CC2)c(C)n(C)c1C,inactive: -23.5%
3,COc1ccc(NC(=O)Cn2ncc3c4ccccc4n(Cc4ccccc4)c3c2=O)cc1OC,inactive: -0.703%
4,COc1ccccc1-c1ncnn1-c1sc2c(c1C#N)CCCCC2,inactive: 21%
5,COc1cc(NS(=O)(=O)c2ccc3c(c2)OCC(C(=O)N2CCCC2)O3)cc(OC)c1 (stereo unspecified),inactive: -51.8%
6,Cc1ccc(NC(=O)Cn2nc(-c3ccc(Cl)cc3)c3ccccc3c2=O)cc1,inactive: -9.28%
7,Cc1ccc(-c2onc(C)c2C)cc1S(=O)(=O)N1CCc2ccccc21,inactive: -62.4%
8,COC(=O)c1ccc(NC(=O)C(c2ccccc2)N2Cc3ccccc3C2=O)cc1 (stereo unspecified),inactive: 12.6%
9,Cc1cccc(CCNC(=O)CCc2c(C)nc3c(-c4ccc(F)cc4)c(C)nn3c2C)c1,inactive: -7.23%
10,CN1CCN(c2ccc(-c3nc(-c4ccccc4)no3)cc2[N+](=O)[O-])CC1,inactive: -90.4%
11,Cc1nc(-c2ccc(Cl)cc2)sc1CCNC(=O)C(=O)Nc1ccccc1C#N,inactive: -8.11%
12,COc1ccc(N2CCN(C(=O)c3cc4c(s3)-c3c(C)cccc3OC4)CC2)cc1,inactive: -4.06%
13,Cc1cc(C)cc(NC(=O)C2CCCN(c3nnc(-n4c(C)ccc4C)s3)C2)c1 (stereo unspecified),inactive: -16.7%
14,CCCc1ccc(OC(=O)c2sc3ncn(Cc4cccc(F)c4)c(=O)c3c2C)cc1,"inactive: -17% [at 11.5 µM, percent change from vehicle, -100% = no light]"
15,COc1ccc(NC(=O)Cn2c(SCc3c(F)cccc3Cl)nc3ccncc32)cc1OC,inactive: -4.75%
16,COCCn1c(SCC(=O)Nc2ccc(Br)cc2)nc2c([nH]c3ccccc32)c1=O,inactive: -8.13%
17,CCCCN(C(=O)Nc1ccc(OCC)cc1)C1CCN(C(C)=O)CC1,inactive: 0.17%
18,CSc1ncc2c(n1)-c1ccccc1N(Cc1ccccc1C)S2(=O)=O,inactive: 23.3%
19,COc1ccc(-n2c(=O)c3c(c4cc(OC)ccc4n3C)n(Cc3c(F)cccc3Cl)c2=O)cc1,inactive: -3.73%
20,COc1cccc(CCNC(=O)c2cnc3sc(N4CCCC4)nn3c2=O)c1,inactive: -22.9%
21,Cc1cccc(-n2c3nc(=O)n(C)c(=O)c-3cc3c(C)nn(-c4ccccc4)c32)c1C,inactive: -6.62%
22,COC1(C(F)(F)F)NC(=O)N(c2ccc(F)cc2)C1=O (stereo unspecified),inactive: -6.93%
23,COc1ccc(Cl)cc1NC(=O)N1CCC2(CC1)Oc1ccccc1C(=O)N2Cc1ccc(F)cc1,inactive: -19.1%
24,CSc1nc2sc3c(c2c(=O)n1-c1ccc(C)cc1)CCCC3,inactive: -18%

row,SMILES,"activity change, positive = activation"
1,CCOC(=O)c1cnn(-c2cccc(Cl)c2)c1C1CCN(C(=O)OC(C)(C)C)CC1,inactive: -2.95%
2,Cc1ccc(OCCSc2nc3ccc(NC(=O)COc4ccc(C)cc4)cc3s2)cc1,inactive: -7.85%
3,CCOC(=O)C1=C(CN(CC)Cc2ccccc2)NC(=O)NC1c1ccc(Cl)cc1 (stereo unspecified),inactive: -30.5%
4,COc1ccc(NC(=O)N2CCC(n3c(C)nc4cccnc43)CC2)cc1OC,inactive: 0.946%
5,Fc1ccc(NCc2nc3ccccc3n2CCOc2ccccc2Cl)cc1,inactive: -1.95%
6,CC1CCc2c(sc3nnn(CC(=O)Nc4ccccc4Cl)c(=O)c23)C1 (stereo unspecified),inactive: -14.8%
7,CCCCNC(=O)c1ccc(-c2nc(CN3CCc4ccccc43)c(C)o2)cc1,inactive: -33%
8,COc1ccc(OC)c(S(=O)(=O)NCCc2sc(C)nc2C)c1,inactive: -10.5%
9,Cc1c(Cl)cccc1NC(=O)CCS(=O)(=O)c1cccc2nsnc12,inactive: -14.5%
10,Cc1cccc(COc2ccc(-c3cc(C(F)(F)F)n4nc(C)cc4n3)cc2)c1,inactive: -3.52%
11,Cc1ccc(Nc2c3c(nc4ccccc24)CCC3)cc1F,inactive: -50.7%
12,Cc1ccc(CNC(=O)CCN2C(=O)C(C)Oc3ccc(C)cc32)cc1 (stereo unspecified),inactive: -25.7%
13,CCc1ccc(-c2nc3cc(NC(=O)c4ccc(F)cc4)ccc3o2)cc1,inactive: -5.53%
14,COc1ccccc1N(CC(=O)NCCSc1ccccc1)S(=O)(=O)c1ccc(C)cc1,inactive: -35.3%
15,Cc1ccc(NC(=O)CCNS(=O)(=O)c2cccs2)cc1F,inactive: 18.5%
16,COc1cccc(-c2nn(C)c3sc(C(=O)N4CCN(c5cccc(C(F)(F)F)c5)CC4)cc23)c1,inactive: -17.9%
17,Cc1cn2c(=O)cc(COC(=O)COc3ccc(F)cc3)nc2s1,inactive: -0.912%
18,CCOc1cc(C(=O)N2CC(=O)Nc3ccc(F)cc3C2c2ccccc2)cc(OCC)c1OCC (stereo unspecified),inactive: 12.5%
19,CC(C)OCCCNC(=O)Cn1c(-c2cccs2)cc2cc(F)ccc21,inactive: -31.7%
20,COc1ccc(N2CCN(CCCNC(=O)c3sc4ncccc4c3-n3cccc3)CC2)cc1,inactive: -17.2%
21,COc1cc2nc(NCCc3ccc(Cl)cc3)n3nc(-c4ccccc4)nc3c2cc1OC,inactive: -12.5%
22,COc1ccc(NC(=O)Cn2nc(C)c3c(C)n(-c4ccccc4)nc3c2=O)cc1OC,inactive: 5.02%
23,CCN(C(=O)c1nn(C)c2c1CSc1ccccc1-2)c1cccc(C)c1,inactive: -6.44%
24,CCCCCCCCCCCCCCCC(=O)OC(C)C,inactive: -1.32%

row,SMILES,"activity change, positive = activation"
1,COc1cc(C(=O)OCc2cc(=O)n3ccsc3n2)cc(OC)c1OC,inactive: -14.2%
2,CCOc1cc(-c2cc(C(=O)O)c3c(-c4ccccc4)[nH]nc3n2)ccc1O,inactive: 12%
3,COc1ccc(S(=O)(=O)NCC(c2ccco2)S(=O)(=O)c2cccs2)cc1OC (stereo unspecified),inactive: 5.72%
4,CCCn1cc(S(=O)(=O)c2ccc(OCC)cc2)c(=O)c2cc(C)ccc21,inactive: 0%
5,CN(CC(=O)N(Cc1ccc(C2CCCCC2)cc1)c1ccc(C(=O)O)c(O)c1)S(=O)(=O)c1c(F)c(F)c(F)c(F)c1F,inactive: 19.9%
6,CCCCC(=O)Nc1cc(-c2cn3cccnc3n2)ccc1C,inactive: -9.62%
7,CCOc1ccc(-c2c(C)nn3c(C)c(C(=O)NC(C)c4ccccc4)cnc23)cc1OCC (stereo unspecified),inactive: -23.9%
8,O=C(CCSCc1ccccc1Cl)NCCc1ccccc1,inactive: -3.61%
9,Cc1c(-c2cccc(NC(=O)Cc3ccccc3)c2)nc2ncccn12,inactive: 1.73%
10,O=C(Cn1ccn(-c2ccc(F)c(F)c2)c(=O)c1=O)NCc1ccccc1,inactive: -2.32%
11,Cc1cc(C)c(NC(=O)c2cc(S(=O)(=O)N3CCCC3)cn2C)c(C)c1,inactive: -4.48%
12,Cc1ccc(OCCSc2nc3ccccc3n2CC(=O)N2CCOCC2)cc1C,inactive: -16.4%
13,COc1cc(Cl)c(S(=O)(=O)N2CCN(c3c(C)cccc3C)CC2)cc1Cl,inactive: -24.2%
14,COc1ccc(CNc2nc(-c3ccccc3)nn2C(=O)c2ccccc2OC)cc1,inactive: 1.59%
15,CCOC(=O)c1cc2c(=O)n3ccccc3nc2n(CC2CCCO2)c1=NC(=O)c1ccc(OCC)cc1 (stereo unspecified),inactive: -11.7%
16,CN(Cc1ccccc1)C(=O)c1c[nH]c2ccc(S(=O)(=O)Nc3ccccc3F)cc2c1=O,inactive: -26.2%
17,Cc1cc(Sc2ccc(Cl)cc2)nc2ccccc12,inactive: 23.8%
18,O=C(CSc1ccccc1)NCc1ccc2c(c1)CCN2C(=O)c1ccc(Cl)cc1,inactive: -11.6%
19,CC(C)(C)OC(=O)N1CCC(c2c(C(=O)NC3CCCCC3)cnn2-c2cccc(F)c2)CC1,inactive: 12.2%
20,Cc1cccc(C(=O)Nc2cccc(C(=O)OCc3cc(=O)n4nc(C(C)C)sc4n3)c2)c1,inactive: 11.6%
21,Cn1nnnc1SCCNCc1ccc(OCc2ccccc2Cl)cc1,inactive: -18.2%
22,CC(NC(=O)c1ccc(NC(=O)c2nsc3ccccc23)cc1)c1ccccc1 (stereo unspecified),inactive: -53.9%
23,O=C(COc1ccccc1)NCc1ccc2c(c1)CCN2C(=O)c1ccccc1,inactive: -28.5%
24,Cc1ccc(C)c(Nc2nc(-c3ccccc3)c3cc(Br)ccc3n2)c1,inactive: -8.45%
